# In the supplement of paper PMC6089552:
# Screen size: about 3,200 compounds; about 300 (9.4%) showed activity. This is a selection; strong and weak results do not stand in their true shares.
# Test system: A673/TR/shEF
# Test: cell viability (LOESS-normalised, relative to median of negative controls) (log2 ratio); higher = more viable cells (less compound effect), active = hit call of the paper (over 3 MAD below the median)
# Settings: treatment time: 72 h
# Summary of the method: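 Doxycycline, present or absent from 24 h before compounds, was used to induce EWS-FLI1 shRNA knockdown in A673/TR/shEF Ewing sarcoma cells at 1,500 per well in 384-well plates. Cells then received library compounds at two or more concentrations, or DMSO controls, for three days. Viability was measured by CellTiter-Glo luminescence on an Envision reader, and per-plate LOESS correction, division by the negative-control median and log2 transformation followed.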
# [1] = 0.025 µM, library screen: screen2, EWS-FLI1 expression: high (no doxycycline)
# [2] = 0.025 µM, library screen: screen2, EWS-FLI1 expression: low (doxycycline-induced shRNA knockdown)
# [3] = 0.103 µM, library screen: screen3, EWS-FLI1 expression: high (no doxycycline)
# [4] = 0.103 µM, library screen: screen3, EWS-FLI1 expression: low (doxycycline-induced shRNA knockdown)
# [5] = 0.25 µM, library screen: screen1, EWS-FLI1 expression: high (no doxycycline)
# [6] = 0.25 µM, library screen: screen1, EWS-FLI1 expression: low (doxycycline-induced shRNA knockdown)
# [7] = 0.25 µM, library screen: screen2, EWS-FLI1 expression: high (no doxycycline)
# [8] = 0.25 µM, library screen: screen2, EWS-FLI1 expression: low (doxycycline-induced shRNA knockdown)
# [9] = 0.308 µM, library screen: screen3, EWS-FLI1 expression: high (no doxycycline)
# [10] = 0.308 µM, library screen: screen3, EWS-FLI1 expression: low (doxycycline-induced shRNA knockdown)
# [11] = 0.926 µM, library screen: screen3, EWS-FLI1 expression: high (no doxycycline)
# [12] = 0.926 µM, library screen: screen3, EWS-FLI1 expression: low (doxycycline-induced shRNA knockdown)
# [13] = 2.5 µM, library screen: screen1, EWS-FLI1 expression: high (no doxycycline)
# [14] = 2.5 µM, library screen: screen1, EWS-FLI1 expression: low (doxycycline-induced shRNA knockdown)
# [15] = 2.5 µM, library screen: screen2, EWS-FLI1 expression: high (no doxycycline)
# [16] = 2.5 µM, library screen: screen2, EWS-FLI1 expression: low (doxycycline-induced shRNA knockdown)
# [17] = 2.8 µM, library screen: screen3, EWS-FLI1 expression: high (no doxycycline)
# [18] = 2.8 µM, library screen: screen3, EWS-FLI1 expression: low (doxycycline-induced shRNA knockdown)
# [19] = 8.3 µM, library screen: screen3, EWS-FLI1 expression: high (no doxycycline)
# [20] = 8.3 µM, library screen: screen3, EWS-FLI1 expression: low (doxycycline-induced shRNA knockdown)
# [21] = 25 µM, library screen: screen2, EWS-FLI1 expression: high (no doxycycline)
# [22] = 25 µM, library screen: screen2, EWS-FLI1 expression: low (doxycycline-induced shRNA knockdown)
# [23] = 25 µM, library screen: screen3, EWS-FLI1 expression: high (no doxycycline)
# [24] = 25 µM, library screen: screen3, EWS-FLI1 expression: low (doxycycline-induced shRNA knockdown)
smiles,measurement,setting,value
NC(=O)N/N=C/c1ccc([N+](=O)[O-])o1,cell viability (log2),[1],inactive: 0.075
same,cell viability (log2),[2],inactive: 0.0664
same,cell viability (log2),[3],inactive: 0.141
same,cell viability (log2),[4],inactive: 0.0585
same,cell viability (log2),[5],inactive: 0.0953
same,cell viability (log2),[6],inactive: 0.12
same,cell viability (log2),[7],inactive: 0.0618
same,cell viability (log2),[8],inactive: -0.052
same,cell viability (log2),[9],inactive: 0.134
same,cell viability (log2),[10],inactive: 0.117
same,cell viability (log2),[11],inactive: 0.0886
same,cell viability (log2),[12],inactive: 0.0795
same,cell viability (log2),[13],inactive: 0.106
same,cell viability (log2),[14],inactive: 0.0319
same,cell viability (log2),[15],inactive: 0.0249
same,cell viability (log2),[16],inactive: 0.0684
same,cell viability (log2),[17],inactive: 0.0952
same,cell viability (log2),[18],inactive: 0.129
same,cell viability (log2),[19],inactive: 0.0158
same,cell viability (log2),[20],inactive: 0.076
same,cell viability (log2),[21],inactive: 0.045
same,cell viability (log2),[22],inactive: 0.0181
same,cell viability (log2),[23],inactive: 0.083
same,cell viability (log2),[24],inactive: 0.125
CN(C)C(=N)N=C(N)N,cell viability (log2),[3],inactive: 0.118
same,cell viability (log2),[4],inactive: 0.00549
same,cell viability (log2),[9],inactive: 0.0861
same,cell viability (log2),[10],inactive: 0.0658
same,cell viability (log2),[11],inactive: 0.0857
same,cell viability (log2),[12],inactive: 0.0788
same,cell viability (log2),[17],inactive: 0.119
same,cell viability (log2),[18],inactive: 0.0653
same,cell viability (log2),[19],inactive: 0.0621
same,cell viability (log2),[20],inactive: 0.0611
same,cell viability (log2),[23],inactive: 0.141
same,cell viability (log2),[24],inactive: 0.0761
CO[C@@H]1[C@@H](OC(N)=O)[C@@H](O)[C@H](Oc2ccc3c(O)c(NC(=O)c4ccc(O)c(CC=C(C)C)c4)c(=O)oc3c2C)OC1(C)C,cell viability (log2),[3],inactive: 0.113
same,cell viability (log2),[4],inactive: 0.068
same,cell viability (log2),[5],inactive: -0.0218
same,cell viability (log2),[6],inactive: 0.0415
same,cell viability (log2),[9],inactive: 0.0747
same,cell viability (log2),[10],inactive: 0.112
same,cell viability (log2),[11],inactive: 0.0507
same,cell viability (log2),[12],inactive: 0.0892
same,cell viability (log2),[13],inactive: 0.0375
same,cell viability (log2),[14],inactive: 0.0732
same,cell viability (log2),[17],inactive: 0.0897
same,cell viability (log2),[18],inactive: 0.00635
same,cell viability (log2),[19],inactive: 0.0955
same,cell viability (log2),[20],inactive: 0.0615
same,cell viability (log2),[23],inactive: 0.0736
same,cell viability (log2),[24],inactive: 0.0942
O=C(NCO)c1cccnc1,cell viability (log2),[5],0.28
same,cell viability (log2),[6],inactive: 0.147
same,cell viability (log2),[13],inactive: 0.255
same,cell viability (log2),[14],inactive: 0.103
CC(=O)Oc1cccc(O)c1,cell viability (log2),[5],inactive: 0.0986
same,cell viability (log2),[6],inactive: 0.0479
same,cell viability (log2),[13],inactive: 0.156
same,cell viability (log2),[14],inactive: 0.0119
CCCc1c(OCCCCc2nn[nH]n2)ccc(C(C)=O)c1O,cell viability (log2),[7],inactive: 0.127
same,cell viability (log2),[8],inactive: 0.0514
same,cell viability (log2),[15],inactive: 0.136
same,cell viability (log2),[16],inactive: 0.105
CCN1CCN(C(=O)N[C@@H](C(=O)N[C@@H]2C(=O)N3[C@@H]2SC(C)(C)[C@@H]3C(=O)O)c2ccccc2)C(=O)C1=O,cell viability (log2),[5],inactive: 0.0771
same,cell viability (log2),[6],inactive: 0.092
same,cell viability (log2),[13],inactive: 0.127
same,cell viability (log2),[14],inactive: 0.201
O=C(NCCNCC(O)COc1ccc(O)cc1)N1CCOCC1 (stereo not given),cell viability (log2),[7],inactive: 0.0856
same,cell viability (log2),[8],inactive: 0.053
same,cell viability (log2),[15],inactive: 0.142
same,cell viability (log2),[16],inactive: 0.0802
N=C(N)c1ccccc1,cell viability (log2),[7],inactive: 0.23
same,cell viability (log2),[8],inactive: 0.0869
same,cell viability (log2),[15],inactive: 0.101
same,cell viability (log2),[16],inactive: 0.0194
CCN(Cc1ccncc1)C(=O)C(CO)c1ccccc1 (stereo not given),cell viability (log2),[5],inactive: 0.0354
same,cell viability (log2),[6],inactive: 0.149
same,cell viability (log2),[7],inactive: 0.141
same,cell viability (log2),[8],inactive: 0.023
same,cell viability (log2),[13],inactive: 0.143
same,cell viability (log2),[14],inactive: 0.156
same,cell viability (log2),[15],inactive: 0.0981
same,cell viability (log2),[16],inactive: 0.0285
Nc1nc(SCc2ccc([N+](=O)[O-])cc2)c2ncn([C@@H]3O[C@H](CO)[C@@H](O)[C@H]3O)c2n1,cell viability (log2),[7],inactive: -0.00724
same,cell viability (log2),[8],inactive: 0.0269
same,cell viability (log2),[15],inactive: 0.0689
same,cell viability (log2),[16],inactive: 0.142
Cc1ncc([N+](=O)[O-])n1CCO,cell viability (log2),[1],inactive: 0.269
same,cell viability (log2),[2],inactive: 0.102
same,cell viability (log2),[5],inactive: 0.123
same,cell viability (log2),[6],inactive: 0.0483
same,cell viability (log2),[7],inactive: 0.132
same,cell viability (log2),[8],inactive: 0.0608
same,cell viability (log2),[13],inactive: 0.12
same,cell viability (log2),[14],inactive: 0.00143
same,cell viability (log2),[15],inactive: 0.175
same,cell viability (log2),[16],inactive: 0.0782
same,cell viability (log2),[21],inactive: 0.172
same,cell viability (log2),[22],inactive: 0.0117
CCN(CC)CC#CCOC(=O)C(O)(c1ccccc1)C1CCCCC1 (stereo not given),cell viability (log2),[3],inactive: 0.058
same,cell viability (log2),[4],inactive: 0.000396
same,cell viability (log2),[7],inactive: 0.11
same,cell viability (log2),[8],inactive: 0.0848
same,cell viability (log2),[9],inactive: 0.0689
same,cell viability (log2),[10],inactive: 0.0837
same,cell viability (log2),[11],inactive: 0.148
same,cell viability (log2),[12],inactive: 0.0972
same,cell viability (log2),[15],inactive: 0.0598
same,cell viability (log2),[16],inactive: 0.127
same,cell viability (log2),[17],inactive: 0.105
same,cell viability (log2),[18],inactive: 0.105
same,cell viability (log2),[19],inactive: 0.036
same,cell viability (log2),[20],inactive: 0.0662
same,cell viability (log2),[23],inactive: 0.137
same,cell viability (log2),[24],inactive: 0.104
CN1C2CCCC1CC(NC(=O)c1nn(C)c3ccccc13)C2 (stereo not given),cell viability (log2),[3],inactive: 0.0702
same,cell viability (log2),[4],inactive: 0.114
same,cell viability (log2),[9],inactive: 0.0358
same,cell viability (log2),[10],inactive: 0.102
same,cell viability (log2),[11],inactive: 0.0683
same,cell viability (log2),[12],inactive: 0.0425
same,cell viability (log2),[17],inactive: 0.0868
same,cell viability (log2),[18],inactive: 0.0504
same,cell viability (log2),[19],inactive: 0.0863
same,cell viability (log2),[20],inactive: 0.0448
same,cell viability (log2),[23],inactive: 0.093
same,cell viability (log2),[24],inactive: 0.0119
CC(=O)Oc1cc(OC(C)=O)c2c(c1)OC(c1ccc(OC(C)=O)c(OC(C)=O)c1)C(OC(C)=O)C2 (stereo not given),cell viability (log2),[5],inactive: 0.1
same,cell viability (log2),[6],inactive: 0.0336
same,cell viability (log2),[13],inactive: 0.18
same,cell viability (log2),[14],inactive: 0.104
C[N+]1(C)C2CC(OC(=O)C(O)(c3cccs3)c3cccs3)CC1C1OC12 (stereo not given),cell viability (log2),[3],inactive: 0.0262
same,cell viability (log2),[4],inactive: 0.0758
same,cell viability (log2),[9],inactive: 0.0294
same,cell viability (log2),[10],inactive: 0.0213
same,cell viability (log2),[11],inactive: -0.023
same,cell viability (log2),[12],inactive: 0.0295
same,cell viability (log2),[17],inactive: 0.0205
same,cell viability (log2),[18],inactive: 0.0567
same,cell viability (log2),[19],inactive: 0.0784
same,cell viability (log2),[20],inactive: 0.0507
same,cell viability (log2),[23],inactive: 0.1
same,cell viability (log2),[24],inactive: 0.116
NC[C@H]1O[C@H](O[C@H]2[C@H](O[C@@H]3O[C@H](CO)[C@@H](O)[C@H]3O)[C@@H](O)[C@H](N)C[C@@H]2N)[C@H](N)[C@@H](O)[C@@H]1O,cell viability (log2),[5],inactive: 0.051
same,cell viability (log2),[6],inactive: 0.0364
same,cell viability (log2),[13],inactive: 0.0972
same,cell viability (log2),[14],inactive: 0.0515
COc1ccc2[nH]cc(CCNC(C)=O)c2c1,cell viability (log2),[5],inactive: 0.11
same,cell viability (log2),[6],inactive: 0.114
same,cell viability (log2),[7],inactive: 0.198
same,cell viability (log2),[8],inactive: 0.0987
same,cell viability (log2),[13],inactive: 0.194
same,cell viability (log2),[14],inactive: 0.0654
same,cell viability (log2),[15],inactive: 0.157
same,cell viability (log2),[16],inactive: 0.0646
C[C@@H]1CC[C@@]2(OC1)O[C@H]1C[C@H]3[C@@H]4CC[C@H]5C[C@@H](O)CC[C@]5(C)[C@H]4C[C@@H](O)[C@]3(C)[C@H]1[C@@H]2C,cell viability (log2),[5],inactive: 0.0822
same,cell viability (log2),[6],inactive: 0.0668
same,cell viability (log2),[13],inactive: 0.111
same,cell viability (log2),[14],inactive: 0.136
